Assay results taken from EP1296995B1, “3'-PRODRUGS OF 2'-DEOXY-BETA-L-NUCLEOSIDES” (priority 2000, dated 2001).
pIC50: −log10 of the molar value. Read-outs that look alike come from different tables or passages of the source. Values belong to the molecule of their own block, whether it stands above or below them.

Key:
Human DNA pol γ = target: T1, Human DNA pol γ (Homo sapiens, UniProt P54098)
T1 sequence (P54098 1-1239): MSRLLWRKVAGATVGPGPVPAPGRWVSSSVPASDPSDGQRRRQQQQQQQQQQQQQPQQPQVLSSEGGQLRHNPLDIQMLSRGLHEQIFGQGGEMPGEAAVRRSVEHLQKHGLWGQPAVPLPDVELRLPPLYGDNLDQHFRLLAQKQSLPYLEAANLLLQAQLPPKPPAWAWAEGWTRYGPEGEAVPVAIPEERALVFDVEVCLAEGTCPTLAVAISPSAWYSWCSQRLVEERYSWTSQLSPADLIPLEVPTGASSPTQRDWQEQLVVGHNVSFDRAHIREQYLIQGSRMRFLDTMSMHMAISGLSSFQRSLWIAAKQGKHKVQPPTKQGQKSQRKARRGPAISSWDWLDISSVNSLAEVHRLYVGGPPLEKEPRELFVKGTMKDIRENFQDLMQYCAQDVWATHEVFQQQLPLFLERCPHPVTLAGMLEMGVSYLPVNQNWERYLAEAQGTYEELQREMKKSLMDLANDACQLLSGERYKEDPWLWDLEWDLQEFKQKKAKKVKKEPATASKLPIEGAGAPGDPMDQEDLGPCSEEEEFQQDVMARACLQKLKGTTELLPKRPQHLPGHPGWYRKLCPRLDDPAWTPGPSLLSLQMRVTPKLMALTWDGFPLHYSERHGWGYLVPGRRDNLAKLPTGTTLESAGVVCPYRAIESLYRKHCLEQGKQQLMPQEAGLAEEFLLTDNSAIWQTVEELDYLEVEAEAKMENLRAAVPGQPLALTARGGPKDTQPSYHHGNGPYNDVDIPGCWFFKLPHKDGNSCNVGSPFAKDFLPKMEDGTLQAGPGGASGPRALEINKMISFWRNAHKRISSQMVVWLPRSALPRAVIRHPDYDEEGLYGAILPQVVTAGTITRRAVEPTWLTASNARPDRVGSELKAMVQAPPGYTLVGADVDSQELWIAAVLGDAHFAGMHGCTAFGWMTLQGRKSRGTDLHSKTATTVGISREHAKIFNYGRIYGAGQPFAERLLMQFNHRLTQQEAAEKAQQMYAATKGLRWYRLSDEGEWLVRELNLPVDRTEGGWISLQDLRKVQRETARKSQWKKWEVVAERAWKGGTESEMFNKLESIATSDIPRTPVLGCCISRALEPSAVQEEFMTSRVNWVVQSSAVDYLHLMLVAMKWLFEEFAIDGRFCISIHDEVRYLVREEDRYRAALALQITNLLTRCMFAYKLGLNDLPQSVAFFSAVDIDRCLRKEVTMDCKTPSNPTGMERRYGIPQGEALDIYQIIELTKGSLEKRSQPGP
T1 sequence (Q9UHN1 26-485 partner limits assumed): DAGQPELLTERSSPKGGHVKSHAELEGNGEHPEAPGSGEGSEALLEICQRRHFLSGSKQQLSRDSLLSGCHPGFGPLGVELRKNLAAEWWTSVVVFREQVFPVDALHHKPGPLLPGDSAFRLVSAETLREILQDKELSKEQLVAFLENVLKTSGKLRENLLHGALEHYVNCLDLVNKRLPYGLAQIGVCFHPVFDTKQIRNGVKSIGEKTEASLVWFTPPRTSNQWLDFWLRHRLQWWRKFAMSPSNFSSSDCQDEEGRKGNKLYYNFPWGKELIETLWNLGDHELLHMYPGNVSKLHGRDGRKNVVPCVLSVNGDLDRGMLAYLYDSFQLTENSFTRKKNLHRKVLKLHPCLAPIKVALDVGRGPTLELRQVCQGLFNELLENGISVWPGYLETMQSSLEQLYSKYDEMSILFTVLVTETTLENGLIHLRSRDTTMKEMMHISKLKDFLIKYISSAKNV

Human DNA polymerases β = Human DNA polymerases β (Homo sapiens, UniProt P06746)
[1] = up to concentrations of 100 µM, the highest concentration tested, listed as triphosphate form of L-dC

Compound: Nc1ccn([C@@H]2C[C@@H](O)[C@H](COP(=O)(O)OP(=O)(O)OP(=O)(O)O)O2)c(=O)n1 [L-dC-TP]
inhibition of human DNA polymerase γ (Human DNA pol γ; [1]): not inhibitory | inhibition of human DNA polymerase β (Human DNA polymerases β; [1]): not inhibitory

Compound: Nc1ncnc2c1ncn2[C@@H]1CC[C@H](COP(=O)(O)OP(=O)(O)OP(=O)(O)O)O1 [L-ddA-TP, reference compound]
pIC50 (Human DNA pol γ; read-out: IC50 Human DNA pol γ): < 4.00 | pIC50 (Human DNA polymerases β; read-out: IC50 Human DNA pol β): < 4.00

inhibition of human DNA polymerase β (Human DNA polymerases β; 5 µM): 50%
Compound: Nc1ccn([C@H]2CC[C@@H](COP(=O)(O)OP(=O)(O)OP(=O)(O)O)O2)c(=O)n1 [ddC-TP, reference compound]
